Test results as given in PubChem BioAssay AID651820 (National Center for Advancing Translational Sciences (NCATS), 2012).
In all, about 340,000 compounds went through this assay and about 12,000 (3.5%) were called active. The shares of active, inactive and inconclusive entries below differ from those in the screen. Calls follow the shape of the dose curve; as a rule, active = well fitted inhibition curve with a large enough effect; inconclusive = small, poorly fitted or top-dose-only effect, or another doubt; inactive = no such curve, though single readings can be large or run the other way. No potency is given beside an inconclusive call; the fits are too rough.

experiment: qHTS Assay for Inhibitors of Hepatitis C Virus (HCV); conditions: Huh7.5.1 HCVcc-Cre (HCVcc is cell-culture hepatitis C virus) infection, luciferase reporter, 44 h; series mostly up to 41.8 µM
Summary of the method: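 Luciferase read-out (15 sec integration) after a 15 min room-temperature substrate step quantifies HCVcc-Cre infection. Cells, 1,000 per well, had compound added 4 h post-plating, then virus at ~0.5 moi, and were cultured 44 h.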
Potency is read from the fitted curve at half-maximal effect; tags tell the direction and shape of the fitted curve.

| SMILES | Potency |
| --- | --- |
| Cn1c(NC(=O)/C=C/c2ccc(Cl)c(Cl)c2)cc(=O)n(C)c1=O | inactive |
| CCN(CC)S(=O)(=O)c1cccc(C(=O)Nc2cc3oc4ccccc4c3cc2OC)c1 | inconclusive [inhibitor, partial curve] |
| CCOC(=O)c1[nH]c2ccc(OC)cc2c1NC(=O)c1nonc1C | inconclusive [inhibitor, single point] |
| N#Cc1ccsc1NC(=O)CCc1ccccc1 | inconclusive [inhibitor, single point] |
| O=C(NCCOc1ccccc1)C1=CC=CN2CCS(=O)(=O)N=C12 | inconclusive [inhibitor, single point] |
| CCOc1cc(C=O)ccc1OS(=O)(=O)c1ccc(NC(C)=O)cc1 | inactive |
| Cc1nnc(NC(=O)c2ccc(S(=O)(=O)N3CC(C)CC(C)C3)cc2)o1 (stereo unspecified) | inactive |
| Cc1ccc2cc(C#N)c(N3CCCN(C(=O)C4CCCO4)CC3)nc2c1C (stereo unspecified) | inconclusive [inhibitor, partial curve] |
| CCOc1ccc(-n2c(N)c(-c3nc4ccccc4[nH]3)sc2=S)cc1 | inconclusive [inhibitor, single point] |
| CCOc1ccc(C(=O)CCC(=O)Nc2ccc(C)c(S(=O)(=O)N3CCCCC3)c2)cc1 | inconclusive [inhibitor, single point] |
| CCOP(=O)(OCC)C(Nc1ccc(C)cc1)c1ccco1 (stereo unspecified) | inactive |
| COc1ccc(CN=CC2=C(O)CC(C)(C)CC2=O)cc1 | inactive |
| CC(=O)N1c2ccc(S(=O)(=O)NCCc3ccc(Cl)cc3)cc2CC1C (stereo unspecified) | inconclusive [inhibitor, single point] |
| Cc1nc(COc2cccc(Cl)c2)sc1C(=O)/C=C/N(C)C | inconclusive [inhibitor, partial curve] |
| COc1ccc(OC)c(-c2csc(NC(=O)COC(=O)c3ccc(NC(=O)CC#N)cc3)n2)c1 | inconclusive [inhibitor, partial curve] |
| O=C(Cn1ccc2ccccc2c1=O)NCCC(=O)Nc1ccc(F)cc1F | inactive |
| CC(=O)Oc1ccc(-c2csc(Nc3ccc(Cl)cn3)n2)cc1 | active: 11.2 µM |
| C=CCNC(=O)c1onc(CSc2cccc(OC)c2)c1C(=O)NCC=C | inconclusive [inhibitor, full curve] |
| CS(=O)c1ccc(-n2c(=O)n(Cc3ccccc3)c(=O)c3[nH]cnc32)cc1 (stereo unspecified) | inactive |
| Cc1cccc(-c2nc(CS(=O)CC(=O)NC(C)CCc3ccccc3)c(C)o2)c1 (stereo unspecified) | inconclusive [inhibitor, full curve, poor fit] |
| CCOc1ccc(N(C(=O)c2snc(C(N)=O)c2N)C(C(=O)NC2CCCC2)c2ccncc2)cc1 (stereo unspecified) | inconclusive [inhibitor, single point] |
| COc1cccc(-c2sc3ccc(OC)cc3c2-c2ccc(O)cc2)c1 | inconclusive [inhibitor, single point] |
| CN1C(=O)C2(c3ccccc31)N(C)CC(c1ccccn1)C21SC(=S)N(Cc2ccco2)C1=O (stereo unspecified) | inconclusive [inhibitor, single point] |
| N#Cc1ccccc1OCC(=O)N(C1CCCCC1)C1CCS(=O)(=O)C1 (stereo unspecified) | inactive |

| SMILES | Potency |
| --- | --- |
| Cc1noc(C)c1S(=O)(=O)N1CCN(C(c2ccccc2)c2ccc(Cl)cc2)CC1 (stereo unspecified) | inconclusive [inhibitor, partial curve] |
| CC(C(=O)O)n1cc(Cl)cn1 (stereo unspecified) | active: 4.47 µM |
| CCC1CCCCN1CCCNC(=O)c1ccc(/C=C2/Sc3ccccc3NC2=O)cc1 (stereo unspecified) | inconclusive [inhibitor, partial curve] |
| COc1ccccc1NS(=O)(=O)c1ccc(N2CCOCC2)c(NC(=O)c2ccco2)c1 | active: 11.2 µM |
| CCOc1ccc(CNC(=O)CCc2cn(Cc3ccccc3)c3ccccc23)cc1 | inactive |
| COc1cccc(CNC(=O)CCNS(=O)(=O)c2cccs2)c1 | inactive |
| COc1ccc(-c2cc(=O)[nH]c3ccccc23)cc1 | inconclusive [inhibitor, single point] |
| COc1cccc(C(=O)NCC(c2cccnc2)N2CCN(c3ccccc3OC)CC2)c1 (stereo unspecified) | inconclusive [inhibitor, partial curve] |
| Cc1cc(=S)cc(C)n1CCO | inactive |
| CCOC(=O)c1c(NC(=O)COC)sc(C(C)=O)c1C | active: 28.2 µM |
| O=C(c1ccccc1)N1CCN(c2ncnc3c2cnn3-c2ccccc2)CC1 | active: 10 µM |
| COc1ccc(-c2cc(C(=O)Nc3sc4c(c3C#N)CCCC4)c3ccccc3n2)cc1 | inconclusive [inhibitor, partial curve] |
| COc1ccc(NC(=O)CCCC(=O)NCCc2ccc(OC)c(OC)c2)cc1 | inactive |
| COC(=O)C(C)Oc1ccc2c(-c3cccc([N+](=O)[O-])c3)cc(=O)oc2c1 (stereo unspecified) | inconclusive [inhibitor, single point] |
| COc1ccc([C@H]2CC(=O)C=C(c3cc4ccccc4s3)C2)cc1OC | inconclusive [inhibitor, single point] |
| O=S(=O)(Nc1cccc2cccnc12)c1ccc(S(=O)(=O)N2CCCC2)cc1 | active: 2.82 µM |
| Cc1ccc(NC(=S)NNC(=O)c2nnn(-c3ccccc3)c2C)cc1 | inactive |
| CCOC(=O)[C@H]1[C@H]2COc3ccc(Br)cc3[C@@H]2N2C(=O)c3cc(F)c(F)cc3NC(=O)[C@@]12C | inconclusive [inhibitor, partial curve] |
| CSCC[C@H](NC(=O)C1CCN(S(=O)(=O)c2ccc(C)cc2)CC1)C(=O)NCC1CCCO1 (stereo partly specified) | inactive |
| Cc1ccc(Nc2nc3ccc(Cl)cc3n3cnnc23)cc1F | inconclusive [inhibitor, single point] |
| COc1ccc(OC)c2sc(NC(=O)C3COc4ccccc4O3)nc12 (stereo unspecified) | inconclusive [inhibitor, full curve] |
| COc1cc2c(cc1NC(=O)COC(=O)[C@@H](NS(=O)(=O)c1cccc(Cl)c1)C(C)C)oc1ccccc12 | inconclusive [inhibitor, full curve] |
| Cc1occc1-c1nnc(SCC(=O)NCc2cccs2)n1CC1CCCO1 (stereo unspecified) | inactive |
| CCOC(=O)c1c(N)sc2c(OC)c(Br)ccc12 | inconclusive [inhibitor, partial curve] |

| SMILES | Potency |
| --- | --- |
| CCOc1ccc(CCNC(=O)c2[nH]c(C)c(C(C)=O)c2CC)cc1OCC | inconclusive [inhibitor, partial curve] |
| O=C1/C(=C/c2cccc3ccccc23)CCCc2ccccc21 | inconclusive [inhibitor, partial curve, poor fit] |
| COc1ccc(S(=O)(=O)N2CCc3ccccc32)cc1C(=O)OCC(=O)c1c(N)n(C)c(=O)n(C)c1=O | inconclusive [inhibitor, full curve] |
| COC(=O)c1ccc(N2CCN(C)CC2)c(NC(=O)c2sc3ccccc3c2Cl)c1 | inconclusive [inhibitor, partial curve, poor fit] |
| CCCOC(=O)c1c(NC(=O)CSc2nc(-c3ccco3)cc(C(F)(F)F)n2)sc(C(=O)OC)c1C | inconclusive [inhibitor, partial curve] |
| CC(C)(C)NC(=O)Cn1nnc(-c2ccc(OCc3c(F)cccc3Cl)cc2)n1 | inactive |
| CCOC(=O)C1CCN(C(=O)CSCc2nc(-c3ccc(OCC)cc3)oc2C)CC1 | inconclusive [inhibitor, full curve] |
| [O-]/C(=C(\C(=S)Nc1cccc2ccccc12)[n+]1ccccc1)c1cccs1 | inactive |
| CCOC(=O)N1CCC(NC(=O)c2ccc3snnc3c2)CC1 | inactive |
| CCCCN(CCCC)CC(O)COc1ccc(Br)cc1 (stereo unspecified) | inconclusive [inhibitor, single point] |
| CCn1c(N2CCN(S(=O)(=O)c3ccc(Cl)cc3)CC2)nc2ccccc21 | inconclusive [inhibitor, single point] |
| c1ccc(COc2ncnc3c2ncn3CCCNCc2ccccn2)cc1 | inconclusive [inhibitor, partial curve, poor fit] |
| NC(=O)CCCn1c(C(=O)c2cc(Cl)c(N)c(Cl)c2)c2ccc([N+](=O)[O-])cc2[n+]1[O-] | active: 11.2 µM |
| CC(C)(C)C(=O)NC(=S)Nc1sc2c(c1C#N)CCCCC2 | inconclusive [inhibitor, single point] |
| Cc1ccccc1S(=O)(=O)c1cc2ccccc2nc1N | inconclusive [inhibitor, single point] |
| CSc1ccc(NC(=O)N2CCC(C(=O)c3ccc(F)cc3)CC2)cc1 | inconclusive [inhibitor, partial curve, poor fit] |
| CNC(=O)c1nn(C)c(=O)[nH]c1=O | inactive |
| Cc1nn(C)cc1-c1csc(N)n1 | inactive |
| O=C(c1ccc(Br)c([N+](=O)[O-])c1)N1CCN(Cc2ccccc2)CC1 | inactive |
| O=C(Nc1ccc(Cl)cc1)/C(=C/c1cccc(O)c1)c1nc2ccccc2s1 | active: 12.6 µM |
| COC(C)c1oc2c(C)c3oc(=O)cc(C)c3cc2c1C (stereo unspecified) | inconclusive [inhibitor, partial curve] |
| COC(=O)C(Cc1ccccc1)NC(=O)CCc1c[nH]c2ccccc12 (stereo unspecified) | inactive |
| O=C(c1ccncc1)c1ccc(N2CCN(C3CC(=O)N(Cc4cccs4)C3=O)CC2)cc1 (stereo unspecified) | inconclusive [inhibitor, single point] |
